# PubChem BioAssay AID504339 (National Center for Advancing Translational Sciences (NCATS), 2011)
# Among all 390,000 compounds or so, about 17,000 (4.4%) were called active. The inconclusive results got no clear call from the source; some entries with a clear call stand among them for comparison. Calls follow the shape of the dose curve; as a rule, active = well fitted inhibition curve with a large enough effect; inconclusive = small, poorly fitted or top-dose-only effect; inactive = no such curve, though single readings can be large or run the other way. A potency beside an inconclusive call is a rough fit, not a confirmed value.
# Target: Lysine-specific demethylase 4A (Homo sapiens) (UniProt O75164)
# Test: qHTS Assay for Inhibitors of JMJD2A-Tudor Domain; also: nearly all actives have a fitted effect of over 50% in size
# Details: AlphaScreen JMJD2A-Tudor / H3K4me3 peptide binding; activity change, negative = inhibition: at 114 µM (top of the series)
# % is scaled to controls: 0 for no effect and ±100 for the full control effect; potency is read from the fitted curve at half-maximal effect; tags tell the direction and shape of the fitted curve.
# Chain of UniProt O75164 (O75164 whole entry, looked up, the tested form may be a part): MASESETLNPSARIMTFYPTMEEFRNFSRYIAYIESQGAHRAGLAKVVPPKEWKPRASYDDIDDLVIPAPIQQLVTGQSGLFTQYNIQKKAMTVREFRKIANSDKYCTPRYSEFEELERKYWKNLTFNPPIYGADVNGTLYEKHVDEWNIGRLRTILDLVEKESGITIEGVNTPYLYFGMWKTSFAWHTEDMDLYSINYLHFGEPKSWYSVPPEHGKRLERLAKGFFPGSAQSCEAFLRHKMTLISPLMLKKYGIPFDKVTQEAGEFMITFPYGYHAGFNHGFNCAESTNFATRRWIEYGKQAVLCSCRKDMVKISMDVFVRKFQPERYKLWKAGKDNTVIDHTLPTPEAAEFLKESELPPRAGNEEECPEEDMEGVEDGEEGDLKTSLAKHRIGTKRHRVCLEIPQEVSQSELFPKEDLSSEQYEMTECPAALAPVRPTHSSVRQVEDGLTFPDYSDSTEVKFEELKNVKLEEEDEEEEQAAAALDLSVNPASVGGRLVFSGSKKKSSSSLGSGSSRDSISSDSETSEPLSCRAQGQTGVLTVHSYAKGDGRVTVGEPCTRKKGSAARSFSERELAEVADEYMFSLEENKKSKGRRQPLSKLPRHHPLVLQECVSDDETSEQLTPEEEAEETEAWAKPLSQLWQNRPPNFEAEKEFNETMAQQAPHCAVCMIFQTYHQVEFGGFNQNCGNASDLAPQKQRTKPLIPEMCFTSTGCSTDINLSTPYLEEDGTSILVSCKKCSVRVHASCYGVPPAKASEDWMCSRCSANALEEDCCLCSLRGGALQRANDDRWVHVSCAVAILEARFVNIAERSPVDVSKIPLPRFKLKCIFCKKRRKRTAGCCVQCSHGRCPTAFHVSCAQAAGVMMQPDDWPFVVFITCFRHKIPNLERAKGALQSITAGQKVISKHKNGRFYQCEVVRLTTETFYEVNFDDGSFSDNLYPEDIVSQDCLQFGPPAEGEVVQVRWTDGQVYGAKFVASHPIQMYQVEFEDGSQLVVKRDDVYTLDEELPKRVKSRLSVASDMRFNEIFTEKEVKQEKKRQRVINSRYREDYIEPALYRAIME
SMILES,Potency,"activity change, negative = inhibition"
CC(C(=O)Nc1ccc(O)cc1C(=O)O)N1C(=O)/C(=C\c2cccs2)SC1=S (stereo unspecified),active: 44.7 µM,
C/C(=N\NC(=S)Nc1cccc(C)c1)c1cc2ccccc2o1,active: 25.1 µM,
CCCCN(CCCC)C1=C(C(=O)c2ccccc2)N(CC)S(=O)(=O)c2ccccc21,"inconclusive: 44.7 µM [inhibitor, partial curve]",
Fc1cccc(Cl)c1C1Nc2cccc3cccc(c23)N1,"inconclusive: 50.1 µM [inhibitor, partial curve]",
CCOC(=O)C1(Cc2cccc(OC)c2)CCN(Cc2cc(OC)ccc2OC)CC1,"inconclusive: 10 µM [inhibitor, partial curve]",
COc1cccc(-c2nc(NC(C)(C)C)c3ccccc3n2)c1O,"inconclusive: 50.1 µM [inhibitor, partial curve]",
Cc1cccc(NC(=S)N/N=C/c2ccc([N+](=O)[O-])s2)c1,active: 56.2 µM,
COc1ccc(CN2CC(=O)N(c3cc(Cl)ccc3C)C2=S)cc1OC,,inactive: -30.8%
Cc1cc2nc(C3CCN(CC4COc5ccccc5O4)CC3)[nH]c2cc1C (stereo unspecified),"inconclusive: 25.1 µM [inhibitor, full curve, poor fit]",
C=CC[n+]1c(-c2ccc(Cl)cc2Cl)csc1Nc1c(C)n(C)n(-c2ccccc2)c1=O,"inconclusive: 50.1 µM [inhibitor, partial curve]",
O=C(CC1Oc2ccccc2NC1=O)NCc1ccc(F)cc1 (stereo unspecified),,inactive: 3.64%
Cc1cc(C)c2nc(-c3ccccn3)cc(C(=O)NCc3ccco3)c2c1,"inconclusive: 89.1 µM [inhibitor, single point]",
COCCOCC(O)CN1CCN(c2ccc(C)cc2)CC1 (stereo unspecified),"inconclusive: 2.82 µM [inhibitor, partial curve]",
CCC1(CC)C(=O)C2=C3C1[C@H](C(=O)OC)C=C(C(=O)OC)C[C@H]3[C@H]1C(=O)N(Cc3ccccc3)C(=O)[C@H]1[C@H]2C (stereo partly specified),"inconclusive: 35.5 µM [inhibitor, partial curve, poor fit]",
COc1ccc(CN(C)C2CCCCC2)cc1,"inconclusive: 44.7 µM [inhibitor, partial curve, poor fit]",
Cc1c(/C=N/NC(N)=O)c2ccccn2c1C(=O)c1ccncc1,"inconclusive: 50.1 µM [inhibitor, partial curve]",
COc1ccc(CC(=O)Nc2nnc3n2CCS3)cc1,active: 56.2 µM,
Cn1cc(C(=O)c2ccc(Cl)cc2Cl)cc1C(=O)N/N=C(\N)COc1ccc(F)cc1,"inconclusive: 79.4 µM [inhibitor, single point]",
CCOc1ccc(NC(=O)c2oc(=O)c3ccccc3c2-c2ccc(C)cc2)cc1,,inactive: -12.8%
CCOc1ccccc1OCCN1CCC(Cc2ccccc2)CC1,active: 44.7 µM,
COC(=O)c1ccc(S(=O)(=O)NNC(=O)c2ccc(S(=O)(=O)N3CCCCC3)cc2)cc1,"inconclusive: 2.51 µM [inhibitor, full curve, poor fit]",
Cc1cccn2c(=S)[nH]nc12,active: 2.82 µM,

SMILES,Potency,"activity change, negative = inhibition"
CCc1ccc(NC(=O)c2ccc3c(O)c(S(=O)(=O)c4ccccc4)c(=O)[nH]c3c2)cc1,,inactive: -22%
C#CCOCCOCCOCCNc1nc(N2CCN(C(=O)[C@H](CCCN=C(N)N)n3cc(C(N)[C@@H](C)CC)nn3)CC2)nc(N2CCN(C(=O)[C@H](CCC(=O)O)n3cc([C@@H](N)[C@H](C)CC)nn3)CC2)n1 (stereo partly specified),"inconclusive: 79.4 µM [inhibitor, partial curve]",
O=C(Cc1ccc2c(c1)OCCO2)c1c(O)cc(O)cc1O,"inconclusive: 56.2 µM [inhibitor, partial curve]",
CC1CCN(CCCOc2ccc(Br)cc2Cl)CC1,active: 3.98 µM,
Cc1ccc(C)n1-c1ccc(C(=O)NCc2ccncc2)cc1,"inconclusive: 15.8 µM [inhibitor, full curve, poor fit]",
COc1cccc2c(C)c(C(=O)O)[nH]c12,"inconclusive: 79.4 µM [inhibitor, partial curve]",
COc1ccc(Cl)cc1NC(=O)CN(C)C(=O)c1ccc(N2CCCCC2)c([N+](=O)[O-])c1,"inconclusive: 44.7 µM [inhibitor, partial curve]",
Nc1ccc2cccc(O)c2c1,active: 28.2 µM,
Cc1cc(=O)n(Cc2ccccc2Cl)c2c1c(C)nn2-c1ccccc1,,inactive: 29.3%
COc1cccc(-n2c(-c3ccc(C)cc3)cc3c2CC(C)(C)CC3=O)c1,"inconclusive: 2.51 µM [inhibitor, partial curve, poor fit]",
CCC1CN(C(=O)N2CCC(C(=O)NCc3ccco3)CC2)c2cc(C)ccc2O1 (stereo unspecified),inactive,
CCOCCCn1c(=S)[nH]c2cc(C(=O)N3CCC(C(N)=O)(N4CCCCC4)CC3)ccc2c1=O,active: 22.4 µM,
S=C(NCc1ccccc1)N1CCn2cccc2C1c1cccnc1 (stereo unspecified),,inactive: -34.9%
C[C@]12c3[nH]c4cc(-c5ccco5)ccc4c3CCN1C(=O)[C@@H](CC(=O)NCCc1ccccn1)C[C@@H]2C(=O)N1CCCCC1,"inconclusive: 63.1 µM [inhibitor, partial curve, poor fit]",
O=C(c1ccc(SCc2cccc(Br)c2)c([N+](=O)[O-])c1)N1CCN(c2ccccn2)CC1,,inconclusive: -47.8% [inhibitor]
COc1cc(/C=N/NC(=O)Cc2ccccc2)ccc1Oc1ccc([N+](=O)[O-])cc1[N+](=O)[O-],"inconclusive: 5.01 µM [inhibitor, full curve]",
O=C(c1ccc(O)cc1)c1ccc(C(=O)O)c(C(=O)O)c1,"inconclusive: 89.1 µM [inhibitor, partial curve]",
CCOC(=O)c1cc(OC(=O)c2cccc(Cl)c2)n(-c2ccccc2)n1,"inconclusive: 89.1 µM [inhibitor, partial curve]",
Cc1ccc(C)c(N2CCN(C(=O)Cn3c(C)c4cnn(-c5ccccc5)c(=O)c4c3C)CC2)c1,"inconclusive: 44.7 µM [inhibitor, partial curve]",
COc1cc(CNn2cn[nH]c2=S)ccc1OCC(=O)NC(C)(C)C,"inconclusive: 63.1 µM [inhibitor, partial curve, poor fit]",
CCN(C(=O)Cn1cc(C(=O)c2ccc(F)cc2)c(=O)c2ccc(C)nc21)c1cccc(C)c1,,inactive: -19.1%
Cc1c(Cl)cnc(NC(=O)COC(=O)/C=C/c2ccco2)c1Cl,"inconclusive: 56.2 µM [inhibitor, partial curve]",

SMILES,Potency,"activity change, negative = inhibition"
COc1ccc(/C=C2/C(=O)OCc3cc(OC)c(OC)cc32)cc1,"inconclusive: 50.1 µM [inhibitor, partial curve]",
CSCCC(NS(=O)(=O)c1ccc2c(c1)OCCO2)C(=O)N(C)Cc1ccc(C)cc1 (stereo unspecified),"inconclusive: 63.1 µM [inhibitor, partial curve, poor fit]",
O=C(Nc1ccc([N+](=O)[O-])cc1)Nc1ccc(N2CCOCC2)c2nonc12,"inconclusive: 7.94 µM [inhibitor, full curve]",
CC1CCN(c2ccc(C(=O)O)cc2N)CC1,,inactive: -24.6%
CCOC(=O)c1ccc(N2C(=O)C3C(/C=C/c4ccccc4)OC4(C(=O)c5ccccc5C4=O)C3C2=O)cc1 (stereo unspecified),"inconclusive: 12.6 µM [inhibitor, full curve, poor fit]",
O=C(CN1C(=O)C2C3C=CC(C3)C2C1=O)NCCc1ccccc1 (stereo unspecified),"inconclusive: 3.16 µM [inhibitor, single point]",
CCn1c(SCC(=O)c2ccc(OC)cc2)nnc1C1CC1,active: 100 µM,
COc1c(OC(C)=O)ccc(/C=C/c2ccc3cccc(OC)c3n2)c1[N+](=O)[O-],"inconclusive: 22.4 µM [inhibitor, full curve]",
O=C(CCN1C(=O)/C(=C/c2ccc(F)cc2)SC1=S)NC1C=CS(=O)(=O)C1 (stereo unspecified),,inactive: 13.6%
CCc1cc2c(cc3c(=O)n(CC(=O)N4CCN(C)CC4)ncn32)s1,"inconclusive: 25.1 µM [inhibitor, full curve, poor fit]",
CN(C)c1ccc(CN(Cc2ccco2)C(=O)c2ccco2)cc1,active: 31.6 µM,
FC(F)(F)c1cnc(Nc2ccc(N3CCOCC3)cc2)c(Cl)c1,"inconclusive: 63.1 µM [inhibitor, partial curve, poor fit]",
COc1cccc(C(CNc2ccc(S(=O)(=O)N3CCN(C)CC3)cc2[N+](=O)[O-])N(C)C)c1 (stereo unspecified),,inconclusive: -46.9% [inhibitor]
COc1ccccc1Nc1nc(N)nc(CN2CCN(c3ccccc3F)CC2)n1,"inconclusive: 44.7 µM [inhibitor, partial curve]",
O=C1/C(=C/c2ccc(Cl)cc2)SC(=S)N1CCC(=O)N1CCCCC1CCO (stereo unspecified),"inconclusive: 39.8 µM [inhibitor, partial curve]",
COc1ccc2[nH]c3c(c2c1)CCNC3(C)CCc1ccc(Cl)nc1 (stereo unspecified),"inconclusive: 39.8 µM [inhibitor, partial curve]",
CN(c1ccccc1)c1ccc(/C=C(\CCC(=O)O)c2nc3ccccc3s2)cc1[N+](=O)[O-],active: 44.7 µM,
Cc1ccc(N(CC(=O)Nc2cccc(C)c2)S(=O)(=O)c2cccc3nonc23)cc1,"inconclusive: 56.2 µM [inhibitor, partial curve]",
Cn1cccc1C(=O)NC(=O)COC(=O)CCNS(=O)(=O)c1ccc(Cl)cc1,,inactive: -17.2%
COc1ccc(/C=C/C(=O)NC2=NCCS2)cc1OC,,inactive: -2.84%
O=C(N/N=C/c1ccccn1)c1cc(-c2ccccc2Cl)n[nH]1,,inactive: -34.4%
COc1ccc(OCc2ccc(-c3nc(C#N)c(N4CCC(C(N)=O)CC4)o3)o2)cc1,"inconclusive: 25.1 µM [inhibitor, full curve, poor fit]",
